The values below come from the supplement of paper PMC12217912.

Some of the results follow. The full chains were built here from the parent and the listed change. Values near 0.05 are background.

First the molecules themselves.
B1: TEV protease; numbered along this chain (parent)
chain: MGESLFKGPRDYNPISSSICHLTNESDGHTTSLYGIGFGPFIITNKHLFRRNNGTLVVQSLHGVFKVKDTTTLQQHLVDGRDMIIIRMPKDFPPFPQKLKFREPQREERICLVTTNFQTKSMSSMVSDTSCTFPSGDGIFWKHWIQTKDGQCGSPLVSTRDGFIVGIHSASNFTNTNNYFTSVPKNFMELLTNQEAQQWVSGWRLNADSVLWGGHKVFMVKPEEPFQPVKEATQL

The variants in the experiment derive from B1. As to the kind of experiment: raw area under fraction-flipped curve 0-4 h after induction (AUC4h, not background-subtracted), DNA-recorder readout of cleavage of the substrate (dimensionless); higher = more cleavage of the substrate by the protease variant. The following applies: temperature: 34 °C; time window: 0-4 h after rhamnose induction.
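Also: Bxb1 expression induced with 0.2% (w/v) L-rhamnose at OD600 near 0.5, cultures sampled hourly, flipped fraction per protease–substrate barcode pair counted by paired-end Illumina sequencing.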

Consider MGESLFKGPRDYNPISSSICHLTNESDGHTTSLYGIGFGPFIITNKHLFRRNNGTLVVQSLHGVFKVKDTTTLQQHLVDGRDMIIIRMPKDFPPFPQKLKFREPQREERICLVTTNFQTKSMSSMVSDTSCTFPSGDGIFWKHWIQTKDGQCGSPLVSTRDGFIVGIHSASNFTNTNNYFTSVPKNFMELLVNQEAQQWVSGWRLNADSVLWGGHKVFMVKPEEPFQPVKEATQL [T192V], for which the “area with substrate ENLYFCS” value came out at 0.0642, the “area with substrate ENLYFFS” value amounted to 0.0845, the “area with substrate ENLYFGS” value came to 0.0748 and the “area with substrate ENLYFHS” value stood at 0.0589. For the same variant, the “area with substrate ENLYFIS” value was determined as 0.0582, the “area with substrate ENLYFMS” value turned out to be 0.0599, the “area with substrate ENLYFNS” value is 0.068 and the “area with substrate ENLYFPS” value amounted to 0.0495. For the same variant, the “area with substrate ENLYFSS” value came to 0.0361, the “area with substrate ENLYFTS” value worked out at 0.0669, the “area with substrate ENLYFVS” value amounted to 0.0609 and the “area with substrate ENLYFWS” value amounted to 0.056. Moreover, the “area with substrate ENLYFYS” value stood at 0.0766.

Take MGESLFKKPRDYNPISSSICHLTNESDGHTTSLYGIGFGPFIITNKHLFRRNNGTLVVQSLHGVFKVKDTTTLQQHLVDGRDMIIIRMPKDFPPFPQKLKFREPQREERICLVTTNFQTKSMSSMVSDTSCTFPSGDGIFWKHWIQTKDGQCGSPLVSTRDGFIVGIHSASNFTNTNNYFTSVPKNFMELLTNQEAQQWVSGWRLNADSVLWGGHKVFMVKPEEPFQPVKEATQL [G8K]: the “area with substrate ENLYFDS” value was 0.055, the “area with substrate ENLYFES” value came out at 0.0604, the “area with substrate ENLYFFS” value was found to be 0.0506 and the “area with substrate ENLYFIS” value is 0.0534. For the same variant, the “area with substrate ENLYFLS” value came out at 0.0655, the “area with substrate ENLYFPS” value came to 0.0499, the “area with substrate ENLYFRS” value came out at 0.063 and the “area with substrate ENLYFSS” value stood at 0.0619. The “area with substrate ENLYFTS” value was 0.0634, the “area with substrate ENLYFVS” value is 0.0573 and the “area with substrate ENLYFWS” value is 0.0674.

For MGESLFKGPRDYNPISSSICHLTNESDGHTTSLYGIGFGPFIITNKHLFRRNNGTLVVQSLHGVFKVKDTTTLQQHLVDGRDMIIIRMPKDFPPFPQKLKFREPQREERICLVTTNFQTKSMSSMVSDTSCTFPSGDGIFWKHWIQTKDGQVGSPLVSTRDGFIVGIHSASNFTNTNNYFTSVPKNFMELLTNQEAQQWVSGWRLNADSVLWGGHKVFMVKPEEPFQPVKEATQL [C152V], the “area with substrate ENLYFDS” value was found to be 0.0579, the “area with substrate ENLYFES” value amounted to 0.0532, the “area with substrate ENLYFIS” value was found to be 0.0608 and the “area with substrate ENLYFKS” value was found to be 0.0626. The “area with substrate ENLYFLS” value amounted to 0.0619, the “area with substrate ENLYFMS” value worked out at 0.0446, the “area with substrate ENLYFNS” value was determined as 0.0582 and the “area with substrate ENLYFPS” value was 0.067. Also, the “area with substrate ENLYFTS” value came to 0.0579, the “area with substrate ENLYFWS” value was 0.0514 and the “area with substrate ENLYFYS” value came to 0.0549.

Regarding MGESLFKGPRDYNPISSSICHLTNESDGHTTSLYGIGFGPFIITNKHLFRRNNGTLVVQSLHGVFKVKDTTTLQQHLVDGRDMIIIRMPKDFPPFPQKLKFREPQREERICLVTTNFQTKSMSSMVSDTSCTFPSGDGIFWKHWIQTKDGQMGSPLVSTRDGFIVGIHSASNFTNTNNYFTSVPKNFMELLTNQEAQQWVSGWRLNADSVLWGGHKVFMVKPEEPFQPVKEATQL [C152M], the “area with substrate ENLYFDS” value was found to be 0.0703, the “area with substrate ENLYFFS” value was determined as 0.0799, the “area with substrate ENLYFKS” value turned out to be 0.0537 and the “area with substrate ENLYFLS” value turned out to be 0.0606. In addition, the “area with substrate ENLYFMS” value worked out at 0.0502, the “area with substrate ENLYFNS” value came to 0.035, the “area with substrate ENLYFSS” value stood at 0.0623 and the “area with substrate ENLYFWS” value was 0.0546.

With MGESLFKGPRDYNPISSSICHLTNESDGHTTSLYGIGFGPFIITNKHLFRRNNGTLVVQSLHGVFKVKDTTTLQQHLVDGRDMIIIRMPKDFPPFPQKLKFREPQREERICLVTTNFQTKSMSSMVSDTSCTFPSGDGIFWKHWIQTKDGQCGSPLVSTRDGFIVGIHSASNFTNTNNYFTSVPKNFMELLTNQEAQQWVSGWRLNADSVLWGGHQVFMVKPEEPFQPVKEATQL [K216Q], the “area with substrate ENLYFCS” value was 0.035, the “area with substrate ENLYFES” value stood at 0.0701, the “area with substrate ENLYFHS” value was 0.0526 and the “area with substrate ENLYFIS” value worked out at 0.0528. The “area with substrate ENLYFNS” value amounted to 0.0638, the “area with substrate ENLYFRS” value was 0.0549, the “area with substrate ENLYFTS” value worked out at 0.0392 and the “area with substrate ENLYFVS” value is 0.0263.

MGESLFKGPRDYNPISSSICHLTNESDGHTTSLYGIGFGPFIITNKHLFRRNNGTLVVQSLHGVFKVKDTTTLQQHLVDGRDMIIIRMPKDFPPFPQKLKFREPQREERICLVTTNFQTKSMSSMVSDTSCTFPSGDGIFWKHWIQTKDGQCGSPLVSTRDGFIVGIHSASNFTNTNNYFTSVPKNFMELLTNQEAQQWVSGWRLNADSVLWGGHKVFMRKPEEPFQPVKEATQL [V220R]: the “area with substrate ENLYFCS” value was found to be 0.0795, the “area with substrate ENLYFDS” value was determined as 0.0499, the “area with substrate ENLYFES” value was found to be 0.0695 and the “area with substrate ENLYFFS” value was 0.0738. The “area with substrate ENLYFGS” value came to 0.0625, the “area with substrate ENLYFHS” value turned out to be 0.0678, the “area with substrate ENLYFIS” value turned out to be 0.0553 and the “area with substrate ENLYFKS” value was determined as 0.064. Besides, the “area with substrate ENLYFMS” value is 0.0687, the “area with substrate ENLYFNS” value turned out to be 0.0608, the “area with substrate ENLYFRS” value stood at 0.0383 and the “area with substrate ENLYFSS” value stood at 0.0571. Besides, the “area with substrate ENLYFTS” value is 0.0602, the “area with substrate ENLYFVS” value was found to be 0.0556 and the “area with substrate ENLYFWS” value worked out at 0.0556.

Take MGESLFKGPRDYNPIYSSICHLTNESDGHTTSLYGIGFGPFIITNKHLFRRNNGTLVVQSLHGVFKVKDTTTLQQHLVDGRDMIIIRMPKDFPPFPQKLKFREPQREERICLVTTNFQTKSMSSMVSDTSCTFPSGDGIFWKHWIQTKDGQCGSPLVSTRDGFIVGIHSASNFTNTNNYFTSVPKNFMELLTNQEAQQWVSGWRLNADSVLWGGHKVFMVKPEEPFQPVKEATQL [S16Y]: the “area with substrate ENLYFDS” value amounted to 0.0463, the “area with substrate ENLYFES” value turned out to be 0.0591, the “area with substrate ENLYFFS” value came to 0.067 and the “area with substrate ENLYFGS” value is 0.0651. The “area with substrate ENLYFIS” value came to 0.0557, the “area with substrate ENLYFKS” value is 0.0761, the “area with substrate ENLYFMS” value was 0.0641 and the “area with substrate ENLYFNS” value was found to be 0.0629. Besides, the “area with substrate ENLYFPS” value came out at 0.0576, the “area with substrate ENLYFRS” value stood at 0.0654, the “area with substrate ENLYFSS” value worked out at 0.057 and the “area with substrate ENLYFTS” value amounted to 0.0684. Moreover, the “area with substrate ENLYFVS” value is 0.0652, the “area with substrate ENLYFWS” value was found to be 0.0697 and the “area with substrate ENLYFYS” value was 0.0578.

Turning to MGESLFKGPRDYNPISSSICHLTNESDGHTTSLYGIGFGPFIITNKHLFRRNNGTLVVQSLHGVFKVKDTTTLQQHLVDGRDMIIIRMPKDFPPFPQKLKFREPQREERICLVTTNFQTKSMSSMVSDTSCTFPSGDGIFWKHWIQTKDGQCGSPLVSTRDGFIVGIHSASNFTNTNNYFTSVPKNFMELLTNQEAQQWVSGWRLNADSVLWGGHKVFMVKPEYPFQPVKEATQL [E224Y], the “area with substrate ENLYFCS” value stood at 0.0479, the “area with substrate ENLYFDS” value came out at 0.0543, the “area with substrate ENLYFFS” value was 0.0726 and the “area with substrate ENLYFGS” value was determined as 0.0493. Also, the “area with substrate ENLYFIS” value stood at 0.0514, the “area with substrate ENLYFKS” value was 0.0664, the “area with substrate ENLYFMS” value was 0.0544 and the “area with substrate ENLYFNS” value is 0.0511. Further, the “area with substrate ENLYFPS” value turned out to be 0.0603 and the “area with substrate ENLYFRS” value is 0.0597.

Consider MGESLFKGPRDYNPISSSICHLTNESDGHTTSLYGIGFGPFIITNKHLFRRNNGTLVVQSLHGVFKVKDTTTLQQHLVDGRDMIIIRMPKDFPPFPQKLKFREPQREERICLVTTNFQTKSMSSMVSDTSCTFPSGDGIFWKHWIQTKDGQCGSPLVSTRDGFIVGIHSASNFTNTNNYFTSVPKNFMELLTNQEAQQWVSGWRLNADSVLWGGHKVFMVKPERPFQPVKEATQL [E224R], for which the “area with substrate ENLYFCS” value was 0.0603, the “area with substrate ENLYFES” value was found to be 0.0712, the “area with substrate ENLYFGS” value turned out to be 0.0517 and the “area with substrate ENLYFHS” value was 0.0344. The “area with substrate ENLYFIS” value was found to be 0.0289, the “area with substrate ENLYFKS” value came to 0.0624, the “area with substrate ENLYFMS” value was found to be 0.0759 and the “area with substrate ENLYFNS” value is 0.0494. In addition, the “area with substrate ENLYFPS” value is 0.0631, the “area with substrate ENLYFSS” value amounted to 0.0599, the “area with substrate ENLYFTS” value was 0.0611 and the “area with substrate ENLYFWS” value turned out to be 0.0538. Further, the “area with substrate ENLYFYS” value was 0.053.
